# Assay results taken from PubChem BioAssay AID1508642 (National Center for Advancing Translational Sciences (NCATS), 2021).
# Among all 43,000 compounds or so, about 200 (0.47%) were called active. Not shown: some 12% with an inconclusive outcome. Calls follow the shape of the dose curve; as a rule, active = well fitted cell-killing curve with a large enough effect; inconclusive = small, poorly fitted or top-dose-only effect, or effect the other way; inactive = flat fitted curve, though single readings scatter. This is one part of the list.
# Assay: Cell viability qHTS assay in S16 Pmp22-F2sN cells; also: nearly all actives have a fitted effect of over 65% in size
# Conditions: S16 Pmp22-F2sN Schwann cells (luciferase reporters placed in the Pmp22 gene) viability, CellTiter-Glo, 24 h; series mostly up to 57.5 µM; activity change, negative = cytotoxicity: at the top concentration
# Method in brief: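 Rat S16 Schwann reporter line, 24 h treatment with library compounds delivered at 23 nL per well. Cell viability by CellTiter-Glo luminescence.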
# % is scaled to controls: 0 for no effect and ±100 for the full control effect.
row,Compound,"activity change, negative = cytotoxicity"
1,CCOc1ccc(C(=O)Nc2nnc(S(=O)(=O)N(CC)c3ccccc3C)s2)cc1,inactive: -14.5%
2,O=C(NCCc1ccccc1)c1ccc2c(c1)CCN2S(=O)(=O)c1ccc(Br)cc1,inactive: -15%
3,CSc1cccc(NC(=O)C2CCN(c3ncnc4c3nc3n4CCCCC3)CC2)c1,inactive: -16.9%
4,O=C(c1ccc(F)cc1)N1CCC(c2nc3ccccc3o2)CC1,inactive: 22.2%
5,CC(C)NC(=O)CC(=O)Nc1ccc2nc3n(c(=O)c2c1)CCCCC3,inactive: 23.7%
6,CCOc1ccccc1NC(=O)C(NS(=O)(=O)c1ccc2c(c1)CCC(=O)N2)c1ccccc1 (stereo unspecified),inactive: 9.96%
7,O=C(NC1CCCCCC1)c1cc2c(Cl)nc3ccccc3c2s1,inactive: -8.64%
8,O=C(c1ccc2c(c1)N(Cc1ccc(Cl)cc1)C(=O)c1ccccc1S2=O)N1CCN(c2ccccc2F)CC1 (stereo unspecified),inactive: 0.847%
9,COc1ccc(-c2nc(C(N)=O)c3c(n2)n(-c2ccccc2OC)c(=O)n3C)c(OC)c1,inactive: 0.441%
10,CCCCOc1ccc(C(=O)N2CCC(c3nc4ccccc4o3)CC2)cc1,inactive: 1.48%
11,CCOC(=O)c1ccc(NC(=O)C2=C(C)Nc3nc(SCc4ccc(Cl)cc4)nn3C2c2ccc(C)cc2)cc1 (stereo unspecified),inactive: -4.27%
12,CCOc1ccc(CC(=O)NCCc2csc(-c3ccc(C(F)(F)F)cc3)n2)cc1,inactive: 0.43%
13,Cc1nn(C(=O)COc2ccccc2)c(C)c1Sc1ccccc1,inactive: 21.9%
14,COc1ccc(CNC(=O)c2ccc3c(c2)N(C)C(=O)C2CCCCN32)cc1OC (stereo unspecified),inactive: 4.07%
15,CC(C)(C)c1ccc(Oc2nc3ccccn3c(=O)c2/C=C(\C#N)c2nc3ccccc3[nH]2)cc1,inactive: 3.38%
16,O=C(CCC(=O)N1CC2CCCN2c2ccccc21)NCc1ccccc1 (stereo unspecified),inactive: -13.2%
17,O=C(NC1CC(=O)N(c2ccccc2)C1)c1ccc(Br)o1 (stereo unspecified),inactive: 5.48%
18,O=C(NCCCN1CCN(c2cccc(Cl)c2)CC1)Nc1ccccc1C(F)(F)F,inactive: -21.9%
19,COc1cccc(CNC(=O)C2CCN(c3nn4c(=O)cc(C)nc4s3)CC2)c1,inactive: 6.65%
20,Cc1cccc(N(CC(=O)NCCSCc2ccc(Cl)cc2)S(C)(=O)=O)c1C,inactive: -18.5%
21,CCOc1ccc(NC(=O)c2cc3c(n(-c4ccc(OC)cc4)c2=O)CC(C)(C)CC3=O)cc1,inactive: 1.02%
22,COc1ccccc1Cn1c(CNS(=O)(=O)c2ccccc2Cl)nc2cccnc21,inactive: 8.69%
23,CC(=O)c1cccc(NC(=O)c2cccn2-c2nnc(N3CCCCC3)s2)c1,inactive: 1.82%

row,Compound,"activity change, negative = cytotoxicity"
1,COc1ccc(NC(=O)CN2C(=O)COc3ccc(S(=O)(=O)Nc4ccccc4)cc32)cc1OC,inactive: 9.43%
2,CCN(c1cccc(C)c1)S(=O)(=O)c1ccc2c(c1)NC(=O)CCS2,inactive: -0.425%
3,O=C(COCc1cc(-c2cccs2)on1)Nc1cccc(Cl)c1Cl,inactive: 23%
4,CCN(CC)C(=O)Cn1cc(SCC(=O)Nc2ccccc2F)c2ccccc21,inactive: 4.14%
5,CCOC(=O)Cn1c(=O)oc2cc(S(=O)(=O)N3CCN(c4ccccc4F)CC3)ccc21,inactive: -2.83%
6,CCn1cc(C(=O)N2CCN(c3ccc(F)cc3)CC2)c(=O)c2cc(S(=O)(=O)N3CCOCC3)ccc21,inactive: -3.21%
7,COc1ccc(NC(=O)C(=O)NCC(c2ccc3c(c2)OCO3)N2CCN(C)CC2)cc1 (stereo unspecified),inactive: 16.3%
8,Cc1oc(-c2ccc(Cl)cc2)nc1Cn1c(=O)cc(C)c2c(C)nn(-c3cccc(F)c3)c21,inactive: 0.482%
9,Cc1ccc(C(=O)Nc2ccc(C(=O)OCc3cc(=O)n4nc(C5CC5)sc4n3)cc2)cc1,inactive: 0.857%
10,CC(=O)Nc1cccc(NC(=O)CSc2cn(CC(=O)N(C(C)C)C(C)C)c3ccccc23)c1,inactive: -1.72%
11,CCOc1cc(CNC(=O)CCCn2c(=O)c3cccn3c3cccnc32)cc(OCC)c1OCC,inactive: 8.5%
12,COc1ccc(CCNC(=O)c2cc(Nc3cc(C)cc(C)c3)nc3ccccc23)cc1OC,inactive: -3.23%
13,CCc1ccccc1NC(=O)Cn1nnc(-c2nc(-c3ccc(C)cc3)no2)c1N,inactive: 2.7%
14,CCOC(=O)c1ccccc1NC(=O)CN1C(=O)CC(c2ccco2)Sc2ccccc21 (stereo unspecified),inactive: 1.33%
15,Cc1ccc2c(c1)sc1nc(-c3cc4ccccc4oc3=O)cn12,inactive: -1.66%
16,Cc1ccccc1C(=O)Nc1ccc(OCc2cc(=O)n3ccccc3n2)cc1,inactive: -9.48%
17,Cc1ccc(NC(=O)Cn2cc(S(=O)(=O)N3CCCC3)c(S(=O)(=O)N3CCCC3)c2)cc1F,inactive: 7.84%
18,COc1cccc(NC(=O)CCN2CCN(c3ccccc3)CC2)c1,inactive: -14.4%
19,Cc1ccc(C)c(S(=O)(=O)c2nnn3c2nc(Nc2ccc(C)c(C)c2)c2ccccc23)c1,inactive: 1.49%
20,Cc1ccc(CCNC(=O)c2c[nH]c3ccc(S(=O)(=O)Nc4ccc(C)cc4C)cc3c2=O)cc1,inactive: -0.593%
21,CCSc1oc(-c2ccco2)nc1S(=O)(=O)c1ccc(Br)cc1,inactive: -12.4%
22,Cc1ccc(NC(=O)Cn2c(=O)c3ccccc3n3nncc23)cc1,inactive: 1.8%
23,COc1ccccc1NC(=O)Cn1c(=O)n(CCC(=O)NCC2CCCO2)c(=O)c2cc(OC)c(OC)cc21 (stereo unspecified),inactive: -9.66%
